The whole screen tested about 52,000 compounds, of which about 1,700 (3.3%) were called active. No stated cut-off is given here; in the data, active means survival mostly below about 52% (no sharp cut-off); inactive means mostly above about 56%. The list shows a part of the results.
The compounds below were run on Wild type (assay: S. aureus survival, RN4220 and DeltatarO strains – OD600, teichoic acid synthesis inhibitors, primary screen (AID 463173)). Settings: S. aureus RN4220 wild type/DeltatarO growth, OD600, 18 h, hits give low values, screened at 18.75 µg/mL (by protocol).
In the case of `CCC(C)NC(=O)c1ccc2c(c1)N=C(C)c1cc(C)ccc1S2` (configuration not stated), the survival is reported as inactive: 113%.
For `CCCn1cc(S(=O)(=O)c2cc(C)ccc2C)c(=O)c2cc(F)c(N3CCCCCC3)cc21`, the survival was inactive: 83%.
With `COc1ccc(-c2cc(-c3ccccc3)nc3c2COc2ccccc2-3)cc1` the survival was inactive: 51%.
In the case of `CC(C)CC(=O)Nc1nnc2n1CCS2`, the survival is reported as inactive: 73%.
In the case of `CCOc1ccc(NCc2cccn2-c2nnc(N3CCC(C(=O)NCc4cccc(OC)c4)CC3)s2)cc1`, the survival is reported as inactive: 75%.
In the case of `CCN1C(=O)c2ccccc2Sc2ccc(NC(=O)Cc3ccc(OC)cc3)cc21`, the survival is reported as inactive: 83%.
For `CCc1ccccc1N(c1nc(-c2ccc(OC)c(OC)c2)no1)c1nc(-c2ccc(OC)c(OC)c2)no1`, the survival was inactive: 75%.
With `COc1cccc(NC(=O)C(=O)NCCc2csc3nc(-c4ccccc4C)nn23)c1` the survival was inactive: 81%.
`COc1ccc(-n2nnc(C(=O)Nc3ccccc3F)c2N)cc1` was tested, and the survival was inactive: 75%.
`Cc1ccc(Cc2nc3ccccc3nc2SCC(=O)NCCc2ccccc2)cc1` was tested, and the survival was inactive: 60%.
In the case of `COC(=O)c1c(NC(=O)c2nc(SC)ncc2Cl)sc2c1CCCC2`, the survival is reported as inactive: 90%.
With `CC(=O)NCc1nc2cccnc2n1Cc1ccccc1` the survival was inactive: 87%.
For `CC(=O)c1cc(-c2ccccc2)n(CCC(=O)NCCc2ccccc2)c1C`, the survival was inactive: 121%.
In the case of `c1ccc(-n2nnnc2N2CCCC2)cc1`, the survival is reported as inactive: 102%.
`Cc1ccc(-c2nnn(CCC(=O)NC(C)(C)C)n2)cc1` was tested, and the survival was inactive: 120%.
In the case of `Cc1oc(-c2cccc(Cl)c2)nc1CSc1nnc(C)n2c1cc1occc12`, the survival is reported as inactive: 86%.
In the case of `Cc1cccc(CCNC(=O)c2ccc3c(c2)nc2n3CCCCC2)c1`, the survival is reported as inactive: 85%.
With `Cc1nc2c(-c3ccc(F)cc3)c(C)nn2c(C)c1CCC(=O)N1CCN(c2ccc(F)cc2)CC1` the survival was inactive: 73%.
`COc1ccc(Cl)cc1N(C)C(=O)Cc1noc2ccc(C)cc12` was tested, and the survival was inactive: 85%.
With `COc1ccccc1N1CCN(C(=O)Cn2cnc3sc(C)c(S(=O)(=O)N4CCC(C)CC4)c3c2=O)CC1` the survival was inactive: 88%.
For `CCc1cccc(C)c1NC(=O)Cn1c(=O)n(-c2cccc(C)c2)c(=O)c2c1c1cc(C)ccc1n2C`, the survival was inactive: 94%.
With `CNC(=O)c1cc(-c2ccc(OC)cc2)nc2ccccc12` the survival was inactive: 114%.
`Cc1cccc(Cc2c(C)nc3nc(SCC(=O)NCc4ccc(F)cc4)nn3c2C)c1` was tested, and the survival was inactive: 61%.
With `CCOc1cccc(OCCCn2c(-c3ccc(Br)cc3)nc3ccccc3c2=O)c1` the survival was inactive: 73%.
With `COc1cccc(CNC(=O)c2ccc(NC(=O)N3CCCCc4ccccc43)cc2)c1OC` the survival was inactive: 73%.
For `CC(=O)c1cccc(NC(=O)C(C)n2c(=O)cc(-c3ccccc3)c3c(C)nn(C)c32)c1` (configuration not stated), the survival was inactive: 124%.
In the case of `CCOc1ccc(-c2cc(-c3nc(-c4ccc(C)cc4)no3)[nH]n2)cc1`, the survival is reported as inactive: 87%.
In the case of `CCN1C(=O)c2ccccc2S(=O)(=O)c2ccc(C(=O)NCc3ccccc3Cl)cc21`, the survival is reported as inactive: 142%.
In the case of `COC(=O)CSc1ncc2c(n1)-c1ccccc1N(Cc1cccc(F)c1)S2(=O)=O`, the survival is reported as inactive: 70%.
With `Cc1cc(C(=O)C(=O)Nc2nnc(C(C)C)s2)c(C)n1-c1ccccc1` the survival was inactive: 101%.
In the case of `CCOC(=O)C1CCN(C(=O)CSc2n[nH]c(-c3ccc(F)cc3)n2)CC1`, the survival is reported as inactive: 90%.
`COc1cccc(CNC(=O)c2c(C)oc3nc(C)nc(N4CCOCC4)c23)c1` was tested, and the survival was inactive: 73%.
`CCc1cccc(C)c1NS(=O)(=O)c1c(C)nc2sccn2c1=O` was tested, and the survival was inactive: 71%.
With `O=C(Cn1c(=O)oc2cc(S(=O)(=O)N3CCCC3)ccc21)NCc1ccc(F)cc1` the survival was inactive: 127%.
In the case of `CCN(CC)S(=O)(=O)c1ccc2c(c1)N(CC(=O)N1CCN(c3ccc(Cl)cc3)CC1)C(=O)CO2`, the survival is reported as inactive: 81%.
For `O=C(NC1CCCCCC1)C1c2ccccc2C(=O)N1Cc1ccccc1Cl` (configuration not stated), the survival was inactive: 90%.
`Cc1cccc(C(=O)Nc2ccc(OCc3cc(=O)n4ccsc4n3)cc2)c1` was tested, and the survival was inactive: 82%.
For `CCOC(=O)c1c(-c2ccccc2)csc1NC(=O)c1cc(-c2ccc(C)c(F)c2)on1`, the survival was inactive: 82%.
`O=C(Cn1ccc2cc(S(=O)(=O)N3CCCCCC3)ccc21)NCCc1ccc(Cl)cc1` was tested, and the survival was inactive: 72%.
For `CC(C)(C)C(=O)NC1CCN(S(C)(=O)=O)CC1`, the survival was inactive: 94%.
In the case of `Cc1ccc(Cl)cc1N1CCN(C(=O)CCCCCn2c(=O)[nH]c3ccccc3c2=O)CC1`, the survival is reported as inactive: 68%.
In the case of `Cc1cc(C(=O)c2cccs2)c(N)s1`, the survival is reported as inactive: 90%.
In the case of `CCOc1ccccc1-c1nc(SCC(=O)c2ccc(OC)c(Br)c2)n[nH]1`, the survival is reported as inactive: 79%.
For `CCc1ccc(NC(=O)C2CCCN(S(=O)(=O)c3c(C)noc3/C=C/N(C)C)C2)cc1` (configuration not stated), the survival was inactive: 57%.
`CCN1CCN(C(=O)c2ccc3c(c2)N(Cc2ccccc2F)C(=O)c2ccccc2S3=O)CC1` (configuration not stated) was tested, and the survival was inactive: 92%.
With `O=C1N(CN2CCCCC2)c2ccccc2C12OCCCCO2` the survival was inactive: 95%.
With `CC(C)OC(=O)c1cccnc1SCC(=O)Nc1ccc(C(F)(F)F)cc1Cl` the survival was inactive: 89%.
For `O=c1c2sccc2n(Cc2cc(=O)n3ccccc3n2)c(=O)n1-c1cccc(C(F)(F)F)c1`, the survival was inactive: 79%.
With `Cc1cnc(=O)[nH]c1SCC(=O)Nc1nc2ccccc2s1` the survival was inactive: 89%.
With `Cc1ccc2oc(-c3cccc(NC(=O)c4sc5c([N+](=O)[O-])cccc5c4Cl)c3)nc2c1` the survival was inactive: 62%.
For `O=C(NCCCO)Nc1ccc(Cl)cc1`, the survival was inactive: 109%.
`Cc1cc2c(cc3c(SCC(=O)Nc4cccc(Cl)c4C)nnc(C)n32)o1` was tested, and the survival was inactive: 113%.
`Cc1ccc(-c2nnc(SCC(=O)NCc3ccccc3)nc2-c2ccc(C)cc2)cc1` was tested, and the survival was inactive: 78%.
For `COc1ccccc1N1CCN(C(=O)c2cnc(N3CCCCC3)c3ccccc23)CC1`, the survival was inactive: 72%.
For `CNS(=O)(=O)c1cc(-c2nnc(Nc3cc(C)ccc3C)c3ccccc23)ccc1C`, the survival was inactive: 103%.
With `Cc1cc(-c2ccc(C)c(S(=O)(=O)Nc3cccc(C#N)c3)c2)on1` the survival was inactive: 71%.
For `COc1ccc(/C=C/C(=O)Nc2ccc(Cl)c(Cl)c2)cc1`, the survival was inactive: 80%.

Reference: PubChem BioAssay AID463173 (ICCB-Longwood Screening Facility, Harvard Medical School, 2010)
